Source: a collection of fitness landscapes (doi:10.1016/j.celrep.2020.107928)
In all, about 81,000 sequences were measured (“one-hybrid fitness for binding NBS DNA”: median about -0.1, highest 2% from about 0.36 on). The list shows a part of the results.

B1: Caulobacter ParB omega fusion; a variant is named by its letters at X, in order, B8GW30 (parent)
chain: MESVVVGEPGMSEGRRGLGRGLSALLGEVDAAPAQAPGEQLGGSREAPIEILQRNPDQPRRTFREEDLEDLSNSIREKGVLQPILVRPSPDTAGEYQIVAGERAWRAAQRAGLKTVPIMVRELDDLAVLEIGIIENVQRADLNVLEEALSYKVLMEKFERTQENIAQTIGKSXSHVANXMRLLXLPDEVQSYLVSGELTAXHARAIAAAADPVALAKQIIEGGLSVRETEALARKAPNLSAGKSKGGRPPRVKDTDTQALESDLSSVLGLDVSIDHRGSTGTLTITYATLEQLDDLCNRLTRGI

Variants of: B1
Test: one-hybrid fitness for binding NBS DNA (the Noc-binding site; scaled: cognate 1, non-cognate 0); higher = stronger binding
Conditions: with NBS DNA site
Method in brief: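 The reporter was HIS3, with the binding site 19 bp from the promoter, in E. coli USO used for bacterial one-hybrid selection of Caulobacter ParB libraries with four specificity codons randomised. Growth was on M9 lacking histidine, with 0.1 mM IPTG and 5 mM 3-AT, for 48 hours at 37°C. Illumina sequencing covered plasmids before and after selection; three replicate libraries were pooled and variants with under 10 reads dropped. A fitness score is the log change in variant-to-wild-type read ratio, rescaled to the cognate and non-cognate references.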

| Variant | one-hybrid fitness for binding NBS DNA |
| --- | --- |
| QMIA | ≤ 0.2 |
| NIPD | ≤ 0.2 |
| MESP | ≤ 0.2 |
| QKYC | ≤ 0.2 |
| GKHT | ≤ 0.2 |
| FVKR | ≤ 0.2 |
| SNMN | ≤ 0.2 |
| HCHG | ≤ 0.2 |
| RFLT | ≤ 0.2 |
| LCFL | ≤ 0.2 |
| FTKP | ≤ 0.2 |
| RYVG | ≤ 0.2 |
| DIPN | ≤ 0.2 |
| ADSS | ≤ 0.2 |
| AMQC | ≤ 0.2 |
| RSGA | ≤ 0.2 |
| FATG | ≤ 0.2 |
| GYSK | ≤ 0.2 |
| GTWA | ≤ 0.2 |
| HQTW | ≤ 0.2 |
| YVSF | ≤ 0.2 |
| PTRG | ≤ 0.2 |
| DNNR | ≤ 0.2 |
| FGQS | ≤ 0.2 |

| Variant | one-hybrid fitness for binding NBS DNA |
| --- | --- |
| RSPC | ≤ 0.2 |
| RYWL | ≤ 0.2 |
| GKAG | ≤ 0.2 |
| RCTW | ≤ 0.2 |
| SPCM | ≤ 0.2 |
| RMVQ | ≤ 0.2 |
| GSQF | ≤ 0.2 |
| LSYR | ≤ 0.2 |
| ERQN | ≤ 0.2 |
| GDNS | ≤ 0.2 |
| RIPA | ≤ 0.2 |
| GVHQ | ≤ 0.2 |
| SSYG | ≤ 0.2 |
| QKGY | 0.237 |
| VKPG | ≤ 0.2 |
| VRAC | ≤ 0.2 |
| SGYR | ≤ 0.2 |
| GAPG | ≤ 0.2 |
| MWTS | ≤ 0.2 |
| GDFR | ≤ 0.2 |
| PRLW | ≤ 0.2 |
| HNPT | ≤ 0.2 |
| DCSV | ≤ 0.2 |
| PTHN | ≤ 0.2 |

| Variant | one-hybrid fitness for binding NBS DNA |
| --- | --- |
| CDSS | ≤ 0.2 |
| FQGS | ≤ 0.2 |
| QHDA | ≤ 0.2 |
| SCKT | ≤ 0.2 |
| RFQG | ≤ 0.2 |
| RFLG | ≤ 0.2 |
| IGAA | ≤ 0.2 |
| HPRF | ≤ 0.2 |
| PTGN | ≤ 0.2 |
| YGTR | ≤ 0.2 |
| RHHY | ≤ 0.2 |
| MRFI | ≤ 0.2 |
| QRPK | ≤ 0.2 |
| DGRH | ≤ 0.2 |
| QCKL | 0.307 |
| RRWQ | 0.251 |
| QAYW | ≤ 0.2 |
| KGPF | ≤ 0.2 |
| ILEI | ≤ 0.2 |
| TNTR | ≤ 0.2 |
| HMDS | ≤ 0.2 |
| TKQN | ≤ 0.2 |
| AVML | ≤ 0.2 |
| LYIF | ≤ 0.2 |

| Variant | one-hybrid fitness for binding NBS DNA |
| --- | --- |
| MKTS | ≤ 0.2 |
| HRAI | ≤ 0.2 |
| DVLG | ≤ 0.2 |
| PKHN | ≤ 0.2 |
| KRSH | 0.205 |
| HNIY | ≤ 0.2 |
| QQML | ≤ 0.2 |
| ITIC | ≤ 0.2 |
| PDVS | ≤ 0.2 |
| NVPL | ≤ 0.2 |
| ASLC | ≤ 0.2 |
| ISHR | ≤ 0.2 |
| QPHQ | ≤ 0.2 |
| MQHR | ≤ 0.2 |
| THCF | ≤ 0.2 |
| STGS | ≤ 0.2 |
| FQKC | ≤ 0.2 |
| AQAR | ≤ 0.2 |
| FCMS | ≤ 0.2 |
| NCRG | ≤ 0.2 |
| EAYA | ≤ 0.2 |
| TTEY | ≤ 0.2 |
| FVNT | ≤ 0.2 |
| WPDS | ≤ 0.2 |

| Variant | one-hybrid fitness for binding NBS DNA |
| --- | --- |
| RHNC | ≤ 0.2 |
| GVGG | ≤ 0.2 |
| QARI | 0.279 |
| LPDL | ≤ 0.2 |
| PWLF | ≤ 0.2 |
| RRVF | ≤ 0.2 |
| TLGN | ≤ 0.2 |
| LVDY | ≤ 0.2 |
| QTCR | 0.679 |
| FQNG | ≤ 0.2 |
| DSTV | ≤ 0.2 |
| RWIV | ≤ 0.2 |
| VNVG | ≤ 0.2 |
| KIVD | ≤ 0.2 |
| NHHN | ≤ 0.2 |
| DYIG | ≤ 0.2 |
| FDMG | ≤ 0.2 |
| ENHG | ≤ 0.2 |
| RIVK | ≤ 0.2 |
| AHRV | ≤ 0.2 |
| GPKT | ≤ 0.2 |
| QCKP | 0.332 |
| RIRK | ≤ 0.2 |
| FTFT | ≤ 0.2 |

| Variant | one-hybrid fitness for binding NBS DNA |
| --- | --- |
| LKMY | ≤ 0.2 |
| MIQR | ≤ 0.2 |
| WYFS | ≤ 0.2 |
| SLVV | ≤ 0.2 |
| ACGW | ≤ 0.2 |
| QRMA | 0.549 |
| CHPT | ≤ 0.2 |
| QHIL | ≤ 0.2 |
| EPCY | ≤ 0.2 |
| SRPN | ≤ 0.2 |
| RPKE | ≤ 0.2 |
| WQDI | ≤ 0.2 |
| RLKY | 0.287 |
| RMLP | ≤ 0.2 |
| YNHR | ≤ 0.2 |
| EVKD | ≤ 0.2 |
| TLTL | ≤ 0.2 |
| TSYV | ≤ 0.2 |
| HPTR | ≤ 0.2 |
| NGVS | ≤ 0.2 |
| QNRR | 0.439 |
| LYTV | ≤ 0.2 |
| YERV | ≤ 0.2 |
| LDRT | ≤ 0.2 |

| Variant | one-hybrid fitness for binding NBS DNA |
| --- | --- |
| FMTQ | ≤ 0.2 |
| RSCT | 0.281 |
| QLQA | 0.204 |
| PTGL | ≤ 0.2 |
| QWWG | ≤ 0.2 |
| AITN | ≤ 0.2 |
| CAAT | ≤ 0.2 |
| QTTV | 0.246 |
| QKHS | 0.494 |
| AMVL | ≤ 0.2 |
| RSFM | ≤ 0.2 |
| NMFG | ≤ 0.2 |
| SVGT | ≤ 0.2 |
| TGMT | ≤ 0.2 |
| HRMR | ≤ 0.2 |
| EHNS | ≤ 0.2 |
| PQLA | ≤ 0.2 |
| RFWY | ≤ 0.2 |
| VFRY | ≤ 0.2 |
| EHHS | ≤ 0.2 |
| GVRP | ≤ 0.2 |
| RHEY | ≤ 0.2 |
| AARF | ≤ 0.2 |
| KRVY | ≤ 0.2 |

| Variant | one-hybrid fitness for binding NBS DNA |
| --- | --- |
| AHHG | ≤ 0.2 |
| ALVY | ≤ 0.2 |
| NNDM | ≤ 0.2 |
| AYSS | ≤ 0.2 |
| RKND | ≤ 0.2 |
| YWVR | ≤ 0.2 |
| YLKG | ≤ 0.2 |
| LRKR | 0.452 |
| LKKP | ≤ 0.2 |
| QEKW | ≤ 0.2 |
| ISVT | ≤ 0.2 |
| SYAN | ≤ 0.2 |
| GYPH | ≤ 0.2 |
| CMGR | ≤ 0.2 |
| CAHE | ≤ 0.2 |
| QYVP | ≤ 0.2 |
| SNRW | ≤ 0.2 |
| EMVS | ≤ 0.2 |
| RNDN | ≤ 0.2 |
| IVQR | ≤ 0.2 |
| QCHQ | 0.269 |
| SQKS | ≤ 0.2 |
| DEPR | ≤ 0.2 |
| RYCD | ≤ 0.2 |

| Variant | one-hybrid fitness for binding NBS DNA |
| --- | --- |
| YPSI | ≤ 0.2 |
| DLLF | ≤ 0.2 |
| TCAN | ≤ 0.2 |
| FHNR | ≤ 0.2 |
| SSRN | ≤ 0.2 |
| RFRI | ≤ 0.2 |
| VLYF | ≤ 0.2 |
| THVD | ≤ 0.2 |
| TVHL | ≤ 0.2 |
| PVPV | ≤ 0.2 |
| NSPK | ≤ 0.2 |
| DHNW | ≤ 0.2 |
| QSRV | 0.396 |
| SDAM | ≤ 0.2 |
| QYMR | 0.482 |
| EGTT | ≤ 0.2 |
| VHME | ≤ 0.2 |
| PIAV | ≤ 0.2 |
| INCV | ≤ 0.2 |
| RNLL | ≤ 0.2 |
| HQWA | ≤ 0.2 |
| LYWT | ≤ 0.2 |
| VSNG | ≤ 0.2 |
| RCHE | ≤ 0.2 |

| Variant | one-hybrid fitness for binding NBS DNA |
| --- | --- |
| RTEQ | ≤ 0.2 |
| YEES | ≤ 0.2 |
| AGEC | ≤ 0.2 |
| YQRL | ≤ 0.2 |
| TPHM | ≤ 0.2 |
| PYER | ≤ 0.2 |
| LPSE | ≤ 0.2 |
| DSWA | ≤ 0.2 |
| RLPD | ≤ 0.2 |
| QATW | ≤ 0.2 |
| TCIC | ≤ 0.2 |
| YQRA | ≤ 0.2 |
| EGFL | ≤ 0.2 |
| LRAG | ≤ 0.2 |
| VLFS | ≤ 0.2 |
| GTRG | ≤ 0.2 |
| TVIL | ≤ 0.2 |
| LMHT | ≤ 0.2 |
| KTDG | ≤ 0.2 |
| NQQW | ≤ 0.2 |
| TVDR | ≤ 0.2 |
| VLYQ | ≤ 0.2 |
| NGGG | ≤ 0.2 |
| NYPL | ≤ 0.2 |

| Variant | one-hybrid fitness for binding NBS DNA |
| --- | --- |
| TNYT | ≤ 0.2 |
| WCAT | ≤ 0.2 |
| QWHS | ≤ 0.2 |
| PTWL | ≤ 0.2 |
| RNER | 0.361 |
| NTTN | ≤ 0.2 |
| KQRP | ≤ 0.2 |
| CRKR | 0.417 |
| HANW | ≤ 0.2 |
| LGKI | ≤ 0.2 |
| TNYP | ≤ 0.2 |
| THLI | ≤ 0.2 |
| TMIE | ≤ 0.2 |
| VAGY | ≤ 0.2 |
| RIKP | ≤ 0.2 |
| PRAL | ≤ 0.2 |
| SLKD | ≤ 0.2 |
| YDEP | ≤ 0.2 |
| TMFT | ≤ 0.2 |
| EPFC | ≤ 0.2 |
| NHYN | ≤ 0.2 |
| TMGC | ≤ 0.2 |
| YFAS | ≤ 0.2 |
| TSGW | ≤ 0.2 |

| Variant | one-hybrid fitness for binding NBS DNA |
| --- | --- |
| RERD | ≤ 0.2 |
| CVES | ≤ 0.2 |
| GDTR | ≤ 0.2 |
| KNCV | ≤ 0.2 |
| EQRR | 0.201 |
| QMGR | 0.591 |
| QRPE | ≤ 0.2 |
| MGAS | ≤ 0.2 |
| ETNK | ≤ 0.2 |
| VKFG | ≤ 0.2 |
| IELT | ≤ 0.2 |
| TPSK | ≤ 0.2 |
| LQPS | ≤ 0.2 |
| LACV | ≤ 0.2 |
| IAVW | ≤ 0.2 |
| RWEK | ≤ 0.2 |
| GLLQ | ≤ 0.2 |
| EATK | ≤ 0.2 |
| MSAW | ≤ 0.2 |
| APFA | ≤ 0.2 |
| KAMR | ≤ 0.2 |
| ANPC | ≤ 0.2 |
| ISDG | ≤ 0.2 |
| RLKH | 0.35 |

| Variant | one-hybrid fitness for binding NBS DNA |
| --- | --- |
| CIMR | ≤ 0.2 |
| SMQC | ≤ 0.2 |
| CHYC | ≤ 0.2 |
| VRHA | ≤ 0.2 |
| AKTM | ≤ 0.2 |
| AFTD | ≤ 0.2 |
| KPTW | ≤ 0.2 |
| QYRF | 0.248 |
| VYKS | ≤ 0.2 |
| MTNR | ≤ 0.2 |
| ERLI | ≤ 0.2 |
| NQLY | ≤ 0.2 |
| HKER | ≤ 0.2 |
| PAAL | ≤ 0.2 |
| YMTN | ≤ 0.2 |
| SYVV | ≤ 0.2 |
| ENQV | ≤ 0.2 |
| TNGR | ≤ 0.2 |
